Some entries of the source have several records that differ or are many. The list is limited to them. An entry can have further records. Values that stand side by side are repeats (runs, samples, wells, individuals or studies). Marks such as (2×) count equal records among those shown.
System: HUVEC/MSC spheroids viability
Test: Human HUVEC/MSC cell line growth inhibition [KRAS2];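 for viability, T/C: percent of DMSO vehicle control luminescence so 100% = untreated viability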
Details: for viability, T/C: stronger effect = lower value
From the text: Multicellular complex tumor spheroid response to RAS pathway inhibitors in combination with a targeted agents in patient-derived cell lines with oncogenic KRAS variants from multiple cancer types
A high-throughput screen of multi-cell type tumor spheroids was designed to identify active combinations of targeted small molecules and KRAS pathway inhibitors. Complex spheroids include a stromal component modeled by human endothelial cells (HUVEC) and fibroblasts modeled by human mesenchymal stem cells (MSCs). The concentration ranges selected for each drug and investigational agent were based upon clinically achievable concentrations if the clinical Cmax of the agent was known. * [This particular assayID is a followup dataset requested by reviewers of the manuscript. It is a test of the HUVEC and MSC without the tumor cells, and was conducted using different drug plates and a different plate layout.]
Compounds. The drugs and investigational agents: BI-3406 (NSC825286), BAY-293 (NSC824723), batoprotafib (TNO155; NSC825523), sotorasib (AMG 510; NSC818433), MRTX1257 (NSC819558), elimusertib (BAY 1895344; NSC800525), molibresib (GSK525762; NSC774829), temuterkib (LY3214996; NSC803410), venetoclax (NSC766270), alisertib (NSC759677), olaparib (NSC753686), talazoparib (NSC767125), erdafitinib (NSC781556), ipatasertib (NSC767898), cabozantinib (NSC761068), nintedanib (NSC756659), abemaciclib (NSC768073), docetaxel (NSC628503), trametinib (NSC758246), and sapanisertib (NSC764658) were obtained from the National Cancer Institute (NCI) Developmental Therapeutics Program Chemical Repository. The FDA-approved anticancer drug set is available from the Developmental Therapeutics Program. […] The stock solutions were prepared in dimethyl sulfoxide (DMSO, Sigma-Aldrich, St. Louis, MO, cat. D2650) at 800-fold the tested concentration and stored at -70 degrees C prior to their use. All drugs and investigational agents were tested over a range starting from a high concentration at or near the clinical Cmax and decreasing in half-log increments. If the clinical Cmax for an agent had not been determined, the highest concentration tested was 10 microM.
Cell Culture. All cells were maintained in an incubator at 37 degrees C and 5% CO2 with 95% humidity. The PDC lines were cultured according to standard operating procedures established by the NCI PDMR (https://pdmr.cancer.gov/sops/default.htm). Briefly, all PDCs were thawed and cultured in Matrigel-coated flasks prepared with a working solution of 1X Ham's F-12 nutrient mix, without supplementation (Invitrogen, Waltham, MA, cat. 11765054), 100 U/mL penicillin-streptomycin (Invitrogen, cat. 15140122), and 2.5% Matrigel (Corning Inc., Corning, NY, cat. 354248) for the first three passages. All PDCs were cultured in complete DMEM/F-12 media containing advanced DMEM/F-12 (Invitrogen, cat. 12634028), 4.9% defined fetal bovine serum, heat inactivated (HyClone Laboratories Inc., Logan, UT, cat. SH30070.03HI), 389 ng/mL hydrocortisone (Sigma-Aldrich, cat. H4001), 9.7 ng/mL human EGF recombinant protein (Invitrogen, cat. PHG0313), 23.4 microg/mL adenine (Sigma-Aldrich, cat. A2786), 97.3 U/mL penicillin-streptomycin (Invitrogen, cat. 15140122), 1.9 mM L-glutamine (Invitrogen, cat. 25030081), and 9.7 microM Y-27632 dihydrochloride (Tocris Bioscience, Bristol, United Kingdom, cat. 1254). The PDCs were cultured in complete DMEM/F12 media without 9.7 microM Y-27632 dihydrochloride for at least two passages prior to the screen. The established cell line HOP-62 was cultured in RPMI 1640 medium, HEPES (Invitrogen, cat. 22400105) with 10% defined fetal bovine serum (HyClone Laboratories Inc., cat. SH30070.03) and 2 mM L-glutamine (Invitrogen, cat. 25030081). The pooled donor HUVEC were cultured in endothelial cell growth medium 2 (PromoCell, Heidelberg, Germany, cat. C-22011) and the hMSC were cultured in mesenchymal stem cell growth medium 2 (PromoCell, cat. C-28009). […]

## COC(=O)c1ccc2c(C(=Nc3ccc(N(C)C(=O)CN4CCN(C)CC4)cc3)c3ccccc3)c(O)[nH]c2c1
Compound alone 0.0316 µM
  viability, T/C: 76.7, 99.4, 67.1, 58.4, 90.1%
Compound alone 0.1 µM
  viability, T/C: 98.8, 94.8, 93.4, 73.4, 85.6%
Compound alone 0.316 µM
  viability, T/C: 100, 93.2, 82.7, 73.8, 89.5%

## CC(C)n1nc(-c2ccc3oc(N)nc3c2)c2c(N)ncnc21
Compound alone
  IC50: 6.01, 2.47, 6.36, 2.1, 19.3 nM
Compound alone 0.000316 µM
  viability, T/C: 70.6, 84.8, 99.7, 89.9, 110%

## C=CC(=O)N1CCN(c2nc(=O)n(-c3c(C)ccnc3C(C)C)c3nc(-c4c(O)cccc4F)c(F)cc23)C(C)C1 (configuration not stated)
Compound alone 0.1 µM
  viability, T/C: 91.5, 87.8, 105, 82, 113, 106, 97.3, 114, 107%
Compound alone 0.316 µM
  viability, T/C: 108, 96.6, 107, 106, 103, 117, 87.7, 113, 124%
Compound alone 1 µM
  viability, T/C: 110 (2×), 99.2, 125, 117, 106, 124, 127, 115%
Compound alone 3.16 µM
  viability, T/C: 121, 127, 143, 108, 94.1, 113, 110 (2×), 119%

## COc1cc2nccc(Oc3ccc(NC(=O)C4(C(=O)Nc5ccc(F)cc5)CC4)cc3)c2cc1OC
Compound alone 3.16 µM
  viability, T/C: 104, 101, 91.8, 84.5, 76.9%

## Cn1ncnc1[C@H]1c2n[nH]c(=O)c3cc(F)cc(c23)N[C@@H]1c1ccc(F)cc1
Compound alone 0.000316 µM
  viability, T/C: 96.5, 96.1, 92, 106, 76.8%

## CC(C)NCC(C(=O)N1CCN(c2ncnc3c2C(C)CC3O)CC1)c1ccc(Cl)cc1 (configuration not stated)
Compound alone 0.0316 µM
  viability, T/C: 85.5, 94.3, 82.6, 78.2, 105%
Compound alone 0.1 µM
  viability, T/C: 92.2, 102, 93.2, 70.5, 87.9%
Compound alone 3.16 µM
  viability, T/C: 66.6, 70.9, 68.7, 45.5, 51.2%

## CC1COCCN1c1cc(-c2ccnn2C)c2ccnc(-c3ccn[nH]3)c2n1 (configuration not stated)
Compound alone 0.00949 µM
  viability, T/C: 85.6, 79.2, 89.1, 116, 94%

## CCN1CCN(Cc2ccc(Nc3ncc(F)c(-c4cc(F)c5nc(C)n(C(C)C)c5c4)n3)nc2)CC1
Compound alone 0.00316 µM
  viability, T/C: 96.2, 103, 91.6, 76.4, 77.3%
Compound alone 1 µM
  viability, T/C: 105, 151, 108, 117, 135%

## COc1cc(Nc2ncc3c(n2)-c2ccc(Cl)cc2C(c2c(F)cccc2OC)=NC3)ccc1C(=O)O
Compound alone 0.0316 µM
  viability, T/C: 94.9, 95, 75.3, 113, 89%

## CCNC(=O)CC1N=C(c2ccc(Cl)cc2)c2cc(OC)ccc2-n2c(C)nnc21 (configuration not stated)
Compound alone 0.316 µM
  viability, T/C: 121, 92.4, 80.9, 97.3, 81.8%
Compound alone 1 µM
  viability, T/C: 120, 112, 127, 94, 123%
Compound alone 3.16 µM
  viability, T/C: 134, 94.9, 120, 121, 101%
Compound alone 10 µM
  viability, T/C: 115, 93.8, 130, 94.1, 105%

— PubChem BioAssay AID2060912 (Molecular Pharmacology Branch, DTP, NCI, 2025)
